According to publication PMC10256215:
No constants are given. Whether binding was seen depends on the method and setting. For some of these results: In cells and extracts the contact can be indirect. Some binding calls cover weakened binding; strength is not graded here. For some of these results: Sequences can lack the tags named with a protein.

The chains behind the UniProt entries cited, without tags or fusion partners.
UniProt Q9H3P7: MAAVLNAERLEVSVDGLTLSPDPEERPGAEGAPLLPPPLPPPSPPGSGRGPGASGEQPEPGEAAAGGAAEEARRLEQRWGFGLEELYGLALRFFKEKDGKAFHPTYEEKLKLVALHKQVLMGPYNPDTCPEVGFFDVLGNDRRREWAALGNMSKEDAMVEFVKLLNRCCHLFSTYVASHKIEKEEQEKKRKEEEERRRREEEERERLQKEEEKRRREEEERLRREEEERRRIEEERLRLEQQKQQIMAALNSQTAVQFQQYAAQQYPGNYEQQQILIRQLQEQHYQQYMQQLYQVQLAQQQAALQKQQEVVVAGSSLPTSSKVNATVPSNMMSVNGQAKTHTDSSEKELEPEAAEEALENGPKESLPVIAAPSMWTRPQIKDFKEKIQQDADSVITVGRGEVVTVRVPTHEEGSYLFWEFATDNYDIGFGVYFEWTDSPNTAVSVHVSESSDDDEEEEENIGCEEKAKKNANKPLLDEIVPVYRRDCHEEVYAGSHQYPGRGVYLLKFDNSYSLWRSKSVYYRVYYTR
UniProt Q9UBF8: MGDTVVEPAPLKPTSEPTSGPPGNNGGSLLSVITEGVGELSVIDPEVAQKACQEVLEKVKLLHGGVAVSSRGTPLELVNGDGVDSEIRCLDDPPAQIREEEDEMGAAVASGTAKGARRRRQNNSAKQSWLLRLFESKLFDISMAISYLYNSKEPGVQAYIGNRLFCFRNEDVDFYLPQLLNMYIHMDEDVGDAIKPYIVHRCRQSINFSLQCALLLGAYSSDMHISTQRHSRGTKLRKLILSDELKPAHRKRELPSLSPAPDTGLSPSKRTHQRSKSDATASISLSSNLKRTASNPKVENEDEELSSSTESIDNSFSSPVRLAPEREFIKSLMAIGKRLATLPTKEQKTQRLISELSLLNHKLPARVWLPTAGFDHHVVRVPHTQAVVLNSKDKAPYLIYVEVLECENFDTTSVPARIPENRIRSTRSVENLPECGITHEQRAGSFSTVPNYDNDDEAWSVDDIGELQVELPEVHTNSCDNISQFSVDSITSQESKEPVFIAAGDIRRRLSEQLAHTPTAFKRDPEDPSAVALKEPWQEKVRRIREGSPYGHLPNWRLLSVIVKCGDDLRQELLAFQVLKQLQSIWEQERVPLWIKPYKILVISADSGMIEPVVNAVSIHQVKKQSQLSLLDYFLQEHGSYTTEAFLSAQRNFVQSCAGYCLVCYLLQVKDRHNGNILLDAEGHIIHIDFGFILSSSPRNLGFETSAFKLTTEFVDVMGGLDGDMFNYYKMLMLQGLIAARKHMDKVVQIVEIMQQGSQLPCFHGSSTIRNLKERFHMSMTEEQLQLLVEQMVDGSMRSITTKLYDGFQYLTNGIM
UniProt O95292: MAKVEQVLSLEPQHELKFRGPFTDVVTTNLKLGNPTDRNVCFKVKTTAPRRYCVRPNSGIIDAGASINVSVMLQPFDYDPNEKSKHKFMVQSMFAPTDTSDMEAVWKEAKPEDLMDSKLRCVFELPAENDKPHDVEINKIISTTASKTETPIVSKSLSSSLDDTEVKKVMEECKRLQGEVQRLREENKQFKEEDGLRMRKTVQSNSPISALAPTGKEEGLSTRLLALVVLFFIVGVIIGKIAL
UniProt P13164: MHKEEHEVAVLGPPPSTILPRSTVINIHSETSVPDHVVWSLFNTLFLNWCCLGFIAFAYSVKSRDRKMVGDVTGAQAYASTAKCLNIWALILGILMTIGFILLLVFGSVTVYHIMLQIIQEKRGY
UniProt O43493: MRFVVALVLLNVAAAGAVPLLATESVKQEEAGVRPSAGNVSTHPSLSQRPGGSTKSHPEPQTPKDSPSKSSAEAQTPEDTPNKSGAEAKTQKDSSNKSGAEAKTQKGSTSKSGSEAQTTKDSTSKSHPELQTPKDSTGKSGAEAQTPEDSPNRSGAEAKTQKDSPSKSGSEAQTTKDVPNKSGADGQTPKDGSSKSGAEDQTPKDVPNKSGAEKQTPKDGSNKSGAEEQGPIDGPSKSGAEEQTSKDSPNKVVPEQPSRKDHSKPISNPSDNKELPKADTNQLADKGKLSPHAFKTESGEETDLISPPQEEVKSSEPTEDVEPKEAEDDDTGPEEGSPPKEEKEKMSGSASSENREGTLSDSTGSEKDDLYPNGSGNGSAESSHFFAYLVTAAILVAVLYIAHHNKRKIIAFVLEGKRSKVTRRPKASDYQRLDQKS
UniProt Q01629: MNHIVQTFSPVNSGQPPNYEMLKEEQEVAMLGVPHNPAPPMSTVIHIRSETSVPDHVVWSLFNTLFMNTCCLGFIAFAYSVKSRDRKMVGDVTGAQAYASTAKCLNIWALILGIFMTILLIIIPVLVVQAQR
UniProt Q01628: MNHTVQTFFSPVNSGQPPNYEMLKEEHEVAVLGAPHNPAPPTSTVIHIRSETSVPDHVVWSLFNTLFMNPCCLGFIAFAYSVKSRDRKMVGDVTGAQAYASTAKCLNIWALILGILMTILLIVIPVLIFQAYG

Assays:
[1] = target: HA-tagged ACBD3 (UniProt Q9H3P7); assay: co-IP; 293T cells co-transfected for 24 h with FLAG- and HA-tagged constructs; IP with anti-FLAG, anti-HA or control IgG; immunoblot with anti-FLAG and anti-HA
[2] = target: T1, HA-tagged OSBP (UniProt P22059); assay: as above
T1 sequence: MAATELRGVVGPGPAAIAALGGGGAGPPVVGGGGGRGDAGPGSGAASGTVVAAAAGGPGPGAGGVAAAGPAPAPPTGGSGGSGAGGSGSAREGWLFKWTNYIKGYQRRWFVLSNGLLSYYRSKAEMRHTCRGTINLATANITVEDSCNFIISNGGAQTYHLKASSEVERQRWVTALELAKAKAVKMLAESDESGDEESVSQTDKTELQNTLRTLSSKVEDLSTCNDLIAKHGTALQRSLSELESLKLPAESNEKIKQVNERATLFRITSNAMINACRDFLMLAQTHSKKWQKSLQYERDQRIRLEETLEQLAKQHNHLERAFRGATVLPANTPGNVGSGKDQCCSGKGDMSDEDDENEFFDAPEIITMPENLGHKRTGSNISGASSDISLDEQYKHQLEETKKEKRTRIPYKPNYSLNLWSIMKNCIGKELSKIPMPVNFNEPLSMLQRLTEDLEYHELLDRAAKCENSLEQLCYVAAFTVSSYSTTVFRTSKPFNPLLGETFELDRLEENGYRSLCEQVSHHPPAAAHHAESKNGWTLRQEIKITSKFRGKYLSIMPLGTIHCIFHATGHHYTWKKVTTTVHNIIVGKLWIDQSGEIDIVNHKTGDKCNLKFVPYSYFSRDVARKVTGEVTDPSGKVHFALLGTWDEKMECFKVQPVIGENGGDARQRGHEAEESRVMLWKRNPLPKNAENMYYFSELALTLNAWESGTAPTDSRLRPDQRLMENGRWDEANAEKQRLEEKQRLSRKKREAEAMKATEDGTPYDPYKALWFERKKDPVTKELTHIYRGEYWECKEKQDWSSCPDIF

[3] = target: HA-tagged PI4KB (UniProt Q9UBF8); assay: as above
[4] = target: T2, HA-tagged SAC1 (UniProt Q9NTJ5); assay: as above
T2 sequence: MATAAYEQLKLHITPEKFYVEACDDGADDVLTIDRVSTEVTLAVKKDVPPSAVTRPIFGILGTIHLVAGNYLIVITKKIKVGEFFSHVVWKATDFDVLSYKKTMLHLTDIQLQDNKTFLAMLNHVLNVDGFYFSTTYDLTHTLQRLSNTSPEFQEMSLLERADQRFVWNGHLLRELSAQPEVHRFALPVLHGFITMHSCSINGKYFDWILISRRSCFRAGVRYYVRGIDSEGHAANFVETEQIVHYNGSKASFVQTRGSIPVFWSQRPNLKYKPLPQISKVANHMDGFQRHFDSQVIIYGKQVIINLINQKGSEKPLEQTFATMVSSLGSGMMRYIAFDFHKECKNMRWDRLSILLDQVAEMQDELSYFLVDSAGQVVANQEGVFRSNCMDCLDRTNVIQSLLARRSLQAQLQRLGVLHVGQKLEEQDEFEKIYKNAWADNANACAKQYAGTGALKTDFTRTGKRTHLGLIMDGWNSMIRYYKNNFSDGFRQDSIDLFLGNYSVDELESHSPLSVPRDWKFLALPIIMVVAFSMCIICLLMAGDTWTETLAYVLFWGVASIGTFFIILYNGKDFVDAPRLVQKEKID

[5] = target: T3, HA-tagged VAPA (UniProt Q9P0L0); assay: as above
T3 sequence: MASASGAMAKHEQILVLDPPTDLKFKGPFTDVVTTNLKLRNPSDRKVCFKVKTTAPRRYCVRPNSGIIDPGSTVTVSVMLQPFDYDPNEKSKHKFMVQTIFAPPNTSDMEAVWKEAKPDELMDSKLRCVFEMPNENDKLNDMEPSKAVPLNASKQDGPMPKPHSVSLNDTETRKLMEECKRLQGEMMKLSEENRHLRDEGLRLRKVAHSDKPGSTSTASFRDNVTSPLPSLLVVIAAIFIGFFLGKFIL

[6] = target: HA-tagged VAPB (UniProt O95292); assay: as above
[7] = target: HA-tagged IFITM1 (human) (UniProt P13164); assay: as above
[8] = target: HA-tagged AiV 2B (Aichi virus (AiV)) (UniProt O91464); assay: as above
[9] = target: HA-tagged AiV 2C (Aichi virus (AiV)) (UniProt O91464); assay: as above
[10] = target: T4, HA-tagged AiV 3A (Aichi virus (AiV)) (UniProt O91464); assay: as above
T4 sequence: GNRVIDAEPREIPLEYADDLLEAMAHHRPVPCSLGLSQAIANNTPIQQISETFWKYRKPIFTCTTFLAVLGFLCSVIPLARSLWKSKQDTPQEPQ

[11] = target: T5, HA-tagged CERT (UniProt Q9Y5P4); assay: as above
T5 sequence: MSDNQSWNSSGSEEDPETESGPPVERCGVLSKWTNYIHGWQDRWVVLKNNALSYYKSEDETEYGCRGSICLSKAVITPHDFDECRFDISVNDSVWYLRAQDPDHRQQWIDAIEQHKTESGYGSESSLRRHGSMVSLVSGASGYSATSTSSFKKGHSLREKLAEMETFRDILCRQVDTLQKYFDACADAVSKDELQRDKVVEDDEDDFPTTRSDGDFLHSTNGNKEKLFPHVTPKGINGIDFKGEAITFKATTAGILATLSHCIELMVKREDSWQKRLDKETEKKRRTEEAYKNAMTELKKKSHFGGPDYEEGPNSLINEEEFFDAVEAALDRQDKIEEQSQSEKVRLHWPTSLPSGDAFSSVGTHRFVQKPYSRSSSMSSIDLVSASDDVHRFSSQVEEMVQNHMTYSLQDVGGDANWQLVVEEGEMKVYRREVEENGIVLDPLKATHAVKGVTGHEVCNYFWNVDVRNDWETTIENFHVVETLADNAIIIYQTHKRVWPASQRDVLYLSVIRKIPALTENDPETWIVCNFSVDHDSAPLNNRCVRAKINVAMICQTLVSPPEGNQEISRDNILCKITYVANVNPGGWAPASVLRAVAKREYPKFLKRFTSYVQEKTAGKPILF

[12] = target: AiV 2B (mammalian two-hybrid fusion) (Aichi virus (AiV)) (UniProt O91464); assay: two-hybrid; mammalian two-hybrid (Checkmate, Promega) in Vero cells; pACT and pBIND fusions in both orientations with the pG5luc reporter; firefly/Renilla luciferase at 48 h as fold of the control with empty pACT or pBIND
[13] = target: AiV 2C (mammalian two-hybrid fusion) (Aichi virus (AiV)) (UniProt O91464); assay: as above
[14] = target: T6, AiV 3A (mammalian two-hybrid fusion) (Aichi virus (AiV)) (UniProt O91464); assay: as above
T6 sequence: T4 sequence

[15] = target: T7, SAC1 (mammalian two-hybrid fusion) (UniProt Q9NTJ5); assay: as above
T7 sequence: T2 sequence

[16] = target: TGN46 (mammalian two-hybrid fusion) (UniProt O43493); assay: as above
[17] = target: T8, VAPA (mammalian two-hybrid fusion) (UniProt Q9P0L0); assay: as above
T8 sequence: T3 sequence

[18] = target: VAPB (mammalian two-hybrid fusion) (UniProt O95292); assay: as above
[19] = target: ACBD3 (mammalian two-hybrid fusion) (UniProt Q9H3P7); assay: as above
[20] = target: T9, OSBP (mammalian two-hybrid fusion) (UniProt P22059); assay: as above
T9 sequence: T1 sequence

[21] = target: PI4KB (mammalian two-hybrid fusion) (UniProt Q9UBF8); assay: as above

| binding [1] | binding [2] | binding [3] | binding [4] | binding [5] | binding [6] | Substance | binding [15] | binding [17] | binding [18] | other results |
| --- | --- | --- | --- | --- | --- | --- | --- | --- | --- | --- |
| binds | binds | binds | binds | binds | binds | FLAG-tagged IFITM2 (from UniProt Q01629 1-132) |  |  |  |  |
|  |  |  |  |  |  | FLAG-tagged ACBD3 (from UniProt Q9H3P7 1-528) |  |  |  | binding [7]: binds |
|  |  |  |  |  |  | FLAG-tagged PI4KB (from UniProt Q9UBF8 1-816) (enzyme) |  |  |  | binding [7]: binds |
| binds | binds | binds | binds | binds | binds | FLAG-tagged IFITM3 (from UniProt Q01628 1-133) |  |  |  |  |
|  |  |  |  |  |  | IFITM1 (mammalian two-hybrid fusion) (from UniProt P13164 1-125) | binds | binds | binds | binding [12]: binds; binding [13]: binds; binding [14]: binds; binding [16]: no binding |
|  |  |  |  |  |  | IFITM2 (mammalian two-hybrid fusion) (from UniProt Q01629 1-132) | binds | binds | binds | binding [19]: binds; binding [20]: binds; binding [21]: binds |
|  |  |  |  |  |  | IFITM3 (mammalian two-hybrid fusion) (from UniProt Q01628 1-133) | binds | binds | binds | binding [19]: binds; binding [20]: binds; binding [21]: binds |

| Substance | binding [1] | binding [2] | binding [3] | binding [4] | binding [5] | binding [6] | binding [15] | binding [17] | binding [18] | other results |
| --- | --- | --- | --- | --- | --- | --- | --- | --- | --- | --- |
| FLAG-tagged IFITM1 (from UniProt P13164 1-125) | binds | binds | binds | binds | binds | binds |  |  |  | binding [8]: binds; binding [9]: binds; binding [10]: binds; binding [11]: no binding |
